Over roughly 81,000 sequences, “one-hybrid fitness for binding NBS DNA” has its median near -0.1; the highest 2% begin near 0.36. This is one part of the list.
B1: Caulobacter ParB omega fusion; a variant is named by its letters at X, in order, B8GW30 (parent)
chain: MESVVVGEPGMSEGRRGLGRGLSALLGEVDAAPAQAPGEQLGGSREAPIEILQRNPDQPRRTFREEDLEDLSNSIREKGVLQPILVRPSPDTAGEYQIVAGERAWRAAQRAGLKTVPIMVRELDDLAVLEIGIIENVQRADLNVLEEALSYKVLMEKFERTQENIAQTIGKSXSHVANXMRLLXLPDEVQSYLVSGELTAXHARAIAAAADPVALAKQIIEGGLSVRETEALARKAPNLSAGKSKGGRPPRVKDTDTQALESDLSSVLGLDVSIDHRGSTGTLTITYATLEQLDDLCNRLTRGI

Variants of: B1
Assay: one-hybrid fitness for binding NBS DNA (the Noc-binding site; scaled: cognate 1, non-cognate 0); higher = stronger binding
Details: with NBS DNA site
How it was run: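 The reporter was HIS3, with the binding site 19 bp from the promoter, in E. coli USO used for bacterial one-hybrid selection of Caulobacter ParB libraries with four specificity codons randomised. Growth was on M9 lacking histidine, with 0.1 mM IPTG and 5 mM 3-AT, for 48 hours at 37°C. Illumina sequencing covered plasmids before and after selection; three replicate libraries were pooled and variants with under 10 reads dropped. A fitness score is the log change in variant-to-wild-type read ratio, rescaled to the cognate and non-cognate references.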

one-hybrid fitness for binding NBS DNA, 1.09:
QQRR

one-hybrid fitness for binding NBS DNA, 0.428:
RRNM

one-hybrid fitness for binding NBS DNA, 0.217:
RRLV

one-hybrid fitness for binding NBS DNA, 0.449:
RVTT

one-hybrid fitness for binding NBS DNA, 0.228:
RCQH

one-hybrid fitness for binding NBS DNA, 0.4:
KMKR

one-hybrid fitness for binding NBS DNA, 0.443:
RKDR

one-hybrid fitness for binding NBS DNA, ≤ 0.2:
VSNI
TVHR
YMDR
PPRE
YLMR
ESKT
AVYK
QYWV
CSDS
CRLG
RKGI
PPPK
PLKA
SCIY
QPRC
LYYT
IPPS
TCVR
VDAF
PDDL
YSHY
NVGN
FDDT
CMAG
VKIR
HPKA
WRCS
PEAG
PQNM
AESS
PGHY
GKPH
VYPY
NFES
LYSN
MFPT
YRLS
GRTS
CMGC
ARWG
ITAS
RVLQ
KENC
HKGH
HFLR
KRCI
MVLV
PDHE
DPGS
PTER
KFAS
HKST
PKWL
PFNL
PHIA
IADT
PYLR
KRVW
TENS
TDVR
WSMC
APID
CHLG
THTV
YVNP
NWLW
ENLY
CHTR
SSRA
HWRT
MTSF
AVTT
MNTL
NDLE
QPSI
VPNN
NDLC
VTDW
RRML
RWQH
GTVQ
SPLF
PGAL
GAST
FIAR
PCCV
MTRF
LWSL
GSMG
EQSY
LAVF
SDPC
LHPR
TQTV
DLVK
FQNA
KETN
YISS
PKMR
HSDL
GAQR
RQAL
QESM
PIER
MRCG
GSGM
GFIT
PDFL
AKHQ
PYRM
TKYV
NLSC
YLIY
FKLV
PTWE
WGGR
VVNF
HQLG
RVEA
NHIT
IVIS
RRAF
GTWI
GKTA
FSWG
RHLG
PQRG
WCYG
PHHR
REKN
NGHC
CKKK
RDHG
FVWS
CSAH
LRIP
RHED
YYNL
TTEV
MSAS
LNRV
QDLT
MSIL
THLD
CVCF
SAED
RDYY
CCYA
GNYS
HGIC
IRDI
TQNV
PAEP
YLRS
LSNK
NQFR
RHRF
HGTP
GKAR
VKIQ
TESR
LKVY
HTCF
CCYD
DVIV
RVPI
PRTL
QMDG
SNEP
SDPM
APIT
RVII
HIWR
HCFF
HWPI
LAFG
TRAY
KLNE
CGEV
EWRG
APIW
CFPL
KMKM
VYNP
SPKC
MIVI
LFSF
GHSK

Reference: a collection of fitness landscapes (doi:10.1016/j.celrep.2020.107928)
